Assay results from publication PMC4336329 (PLoS ONE, 2015).
Hit rate of the full screen: of about 310,000 compounds, about 2,200 (0.71%) showed an effect of 50% or more. Effects have a minus sign here. This is one part of the list.

Molecular target: human ether-à-go-go-related gene (hERG) potassium channel (human, UniProt Q12809)
Assay: primary screen, population patch clamp on CHO cells stably expressing hERG

human ether-à-go-go-related gene (hERG) potassium channel, sequence (Q12809 whole entry, looked up): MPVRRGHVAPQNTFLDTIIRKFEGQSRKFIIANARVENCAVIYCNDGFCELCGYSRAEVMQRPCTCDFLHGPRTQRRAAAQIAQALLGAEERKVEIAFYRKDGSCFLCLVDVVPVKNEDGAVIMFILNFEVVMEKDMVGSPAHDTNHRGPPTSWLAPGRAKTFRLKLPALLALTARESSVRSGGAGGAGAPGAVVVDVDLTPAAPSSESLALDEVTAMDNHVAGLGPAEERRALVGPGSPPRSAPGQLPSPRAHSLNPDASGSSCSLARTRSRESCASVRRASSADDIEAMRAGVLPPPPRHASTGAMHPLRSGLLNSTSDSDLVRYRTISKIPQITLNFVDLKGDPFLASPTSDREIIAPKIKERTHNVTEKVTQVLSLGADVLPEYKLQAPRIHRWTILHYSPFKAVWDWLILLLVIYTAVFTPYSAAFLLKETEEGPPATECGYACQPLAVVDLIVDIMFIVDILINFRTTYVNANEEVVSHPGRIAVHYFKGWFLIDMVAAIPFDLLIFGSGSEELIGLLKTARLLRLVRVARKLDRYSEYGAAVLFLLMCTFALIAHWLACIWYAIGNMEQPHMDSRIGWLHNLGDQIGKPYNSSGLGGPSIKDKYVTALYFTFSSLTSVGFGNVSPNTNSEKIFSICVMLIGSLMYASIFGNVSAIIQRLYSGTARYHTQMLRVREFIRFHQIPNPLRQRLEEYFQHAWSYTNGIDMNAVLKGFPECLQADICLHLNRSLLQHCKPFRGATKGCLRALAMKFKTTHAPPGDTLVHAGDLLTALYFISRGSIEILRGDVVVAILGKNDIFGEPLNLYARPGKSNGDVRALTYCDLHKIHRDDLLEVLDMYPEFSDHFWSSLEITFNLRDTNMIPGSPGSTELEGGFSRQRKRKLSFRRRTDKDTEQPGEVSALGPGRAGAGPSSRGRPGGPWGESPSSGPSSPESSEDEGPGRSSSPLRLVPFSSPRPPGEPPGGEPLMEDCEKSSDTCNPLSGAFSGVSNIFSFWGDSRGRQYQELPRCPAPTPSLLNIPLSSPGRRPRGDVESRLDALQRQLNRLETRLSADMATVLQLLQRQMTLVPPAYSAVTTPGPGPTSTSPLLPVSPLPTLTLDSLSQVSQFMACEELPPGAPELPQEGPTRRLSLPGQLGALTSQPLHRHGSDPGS

| SMILES | hERG current change (%, negative = inhibition) at 1uM [%] |
| --- | --- |
| O=C(CN1C(=O)CC(c2ccccc2)=Nc2ccccc21)NC1CCCCC1 | 1.91 |
| O=C(O)Cn1c(O)c(C2=c3ccccc3=NC2=O)sc1=O | 4.45 |
| Cc1ccc(C)c(N2N=C(C(=O)Nc3ccc(S(=O)(=O)N4CCCC4)cc3)CCC2=O)c1 | 3.72 |
| O=C(C1=C[C@H](c2coc3ccccc3c2=O)C[C@H](OCCCCO)O1)N1CCOCC1 | 9.03 |
| N#Cc1c(/N=C/c2cccs2)sc2c1CCC2 | 6.41 |
| COC(=O)C1=C(C)N(C)C(=O)/C1=C\c1cccs1 | 12.6 |
| CCN(CC(=O)Nc1ccccc1Br)Cc1nc2ccccc2c(=O)[nH]1 | 9.66 |
| CCOC(=O)c1c(-c2ccccc2)csc1NC(=O)c1cccc(N2C(=O)CCC2=O)c1 | 6.87 |
| CN(C)C(=O)Oc1cc(OC(=O)N(C)C)cc(C(O)CNC(C)(C)C)c1.Cl (stereo not drawn) | 9 |
| COc1ccc(C(CNc2ncnc3sc(C)c(C)c23)N(C)C)cc1 (stereo not drawn) | -19.9 |
| COc1ccc(C(=O)Oc2ccc(/C=N/O)cc2)cc1 | 5.68 |
| COc1cc(CNC(=O)c2cccc(COc3ccc(Cl)cc3)c2)cc(OC)c1 | 14.9 |
| CCOC(=O)C1=C(N)OC2=C(C(=O)CCC2)C1c1ccc(C)s1 (stereo not drawn) | -29.6 |
| COC(=O)CCCC(=O)Nc1ccc(Cl)c(Cl)c1 | 10.1 |
| COc1ccc(C(=O)Cn2c(Br)nc3c2c(=O)n(C)c(=O)n3C)cc1 | -5.07 |
| O=C(Nc1c(F)cccc1F)c1ccc2c(c1)CCN2S(=O)(=O)c1ccccc1 | 13.5 |
| O=C(CN1CCCCCC1)Nc1ccccc1Oc1ccccc1 | 8.69 |
| Cc1cc(C)n2cc(CSc3nc4ccccc4[nH]3)nc2n1 | 6.59 |
| Fc1ccc(N=C2NN=C(c3cc(F)ccc3F)CS2)cc1 | -4.22 |
| Cn1cnnc1Sc1ccc(/C=C(\CC(=O)O)c2nc3ccccc3s2)cc1[N+](=O)[O-] | 9.35 |
| Cc1c(C(=O)Nc2ccc(Cl)cc2)c2ccccn2c1C(=O)c1ccc(F)cc1 | 11.4 |

| SMILES | hERG current change (%, negative = inhibition) at 1uM [%] |
| --- | --- |
| Cc1cc(C)c[n+](-c2nc([O-])sc2C=O)c1 | 9.87 |
| Cc1ccc(C2C=NN(c3ccccc3)C2=O)cc1 (stereo not drawn) | 14.8 |
| COc1ccc2nc(Cl)c(/C=N/Nc3ccccn3)cc2c1 | 7.79 |
| COCCn1c(SCC(=O)NCC2CCCO2)nc2c(c1=O)SC(C)C2 (stereo not drawn) | 19.7 |
| CCC1=C(OC(=O)N(CC)CC)N2C(=O)OC(=NCC(=O)OC)[C@]2(C)[C@H]2C1=CC[C@H]1C(=O)N(CC(=O)OC)C(=O)[C@H]12 | 7.07 |
| COC(=O)CSc1snnc1-c1ccc(Cl)c(Cl)c1 | 10.2 |
| C=C[C@@H]1c2ccccc2N(S(=O)(=O)c2ccc(C)cc2)[C@H](c2ccc(C(F)(F)F)cc2)C1(C#N)C#N | -2.41 |
| O=C(CC1C(=O)NCCN1CC1CCCCC1)NCc1ccc(F)cc1F (stereo not drawn) | 9.55 |
| Cc1ccc2cc3cc(C(=O)N4CCC5(CC4)OCCO5)oc3nc2c1 | 9.5 |
| COc1ccc(O)c(/C=N/Nc2nc(C)cc(-c3ccccc3)n2)c1 | 12.7 |
| CC(=O)c1cccc(NC(=O)CCc2nc3sc4c(c3c(=O)[nH]2)CCCC4)c1 | 4.71 |
| CCN(Cc1ccccc1)S(=O)(=O)c1c(C)[nH]c(C)c1C(=O)N1CCCC1 | 7.88 |
| NC(=O)c1cc(C(=O)c2cccc(Cl)c2Cl)c[nH]1 | 3.46 |
| CCOC(=O)c1ccc(Cl)c(NC(=O)c2ccc(-c3ccccc3)cc2)c1 | 15.2 |
| CN(C)CCCN(C(=O)C1=COCCO1)c1nc2ccc(Br)cc2s1.Cl | -25.1 |
| O=[N+]([O-])c1cccc(-c2nnc3ccc4ccccc4n23)c1 | 6.4 |
| O=C(/C=C/c1cccc([N+](=O)[O-])c1)Nc1ccc(NC(=O)c2cccs2)cc1 | 12.4 |
| COc1ccc(/C=C2\SC(=S)N(CCCC(=O)Nc3ccccc3C(=O)O)C2=O)cc1OC | 10.6 |
| CCn1c(SCC(=O)c2ccccc2)nnc1-c1cnccn1 | 6.83 |
| O=C(c1ccc([N+](=O)[O-])cc1)N1CCCC1 | 9.66 |
| O=C1Nc2ccccc2C(=O)N2CCCCC12 (stereo not drawn) | 7.83 |
